Laboratory results reported in paper PMC4336329 (PLoS ONE, 2015).
The whole screen tested about 310,000 compounds, of which about 14,000 (4.5%) showed an effect of 50% or more. The effect is printed as a negative number. This is one part of the list.

Molecular target: human ether-à-go-go-related gene (hERG) potassium channel (human, UniProt Q12809)
Test: primary screen, population patch clamp on CHO cells stably expressing hERG
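Further: peak tail current of the secondary pulse compared with the same well before compound.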

Chain of human ether-à-go-go-related gene (hERG) potassium channel (Q12809 whole entry, looked up): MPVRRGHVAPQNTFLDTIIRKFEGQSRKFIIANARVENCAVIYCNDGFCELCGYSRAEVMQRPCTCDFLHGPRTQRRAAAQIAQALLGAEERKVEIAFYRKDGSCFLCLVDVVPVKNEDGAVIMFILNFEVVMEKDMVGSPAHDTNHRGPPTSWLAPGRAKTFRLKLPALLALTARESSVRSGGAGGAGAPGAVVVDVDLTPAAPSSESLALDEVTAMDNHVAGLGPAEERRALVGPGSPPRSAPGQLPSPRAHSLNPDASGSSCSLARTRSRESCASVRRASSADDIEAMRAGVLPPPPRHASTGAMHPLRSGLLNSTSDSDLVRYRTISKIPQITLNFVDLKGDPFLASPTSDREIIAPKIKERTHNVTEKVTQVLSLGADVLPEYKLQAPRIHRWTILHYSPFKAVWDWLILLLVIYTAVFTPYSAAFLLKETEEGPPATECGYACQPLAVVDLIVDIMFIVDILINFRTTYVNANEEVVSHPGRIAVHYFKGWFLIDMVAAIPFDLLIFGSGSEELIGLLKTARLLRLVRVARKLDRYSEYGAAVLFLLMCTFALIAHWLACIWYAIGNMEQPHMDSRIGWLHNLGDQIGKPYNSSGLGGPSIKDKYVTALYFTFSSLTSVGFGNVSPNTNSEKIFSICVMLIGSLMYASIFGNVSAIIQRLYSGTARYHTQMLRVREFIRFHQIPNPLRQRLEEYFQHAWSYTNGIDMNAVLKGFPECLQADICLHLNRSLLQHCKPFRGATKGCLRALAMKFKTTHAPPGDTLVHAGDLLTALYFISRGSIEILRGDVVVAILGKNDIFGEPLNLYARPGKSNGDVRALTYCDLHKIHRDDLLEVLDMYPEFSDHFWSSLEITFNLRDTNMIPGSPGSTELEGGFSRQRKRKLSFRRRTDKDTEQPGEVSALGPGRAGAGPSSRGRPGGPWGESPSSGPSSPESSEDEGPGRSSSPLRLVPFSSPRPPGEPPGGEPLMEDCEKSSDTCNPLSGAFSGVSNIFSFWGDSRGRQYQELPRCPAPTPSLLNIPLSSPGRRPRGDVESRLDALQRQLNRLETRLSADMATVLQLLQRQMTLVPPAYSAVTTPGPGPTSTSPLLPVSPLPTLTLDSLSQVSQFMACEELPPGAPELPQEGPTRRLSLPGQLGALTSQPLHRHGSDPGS

Point of comparison: `COC(=O)c1c(NC(=O)c2ccc(C)cc2)csc1C`, “hERG current change (%, negative = inhibition) at 10uM” value 7.8%. Against it:
- CN1CCN(C2CCCCC2NS(=O)(=O)c2ccccc2)CC1 (stereo not drawn) — higher, 9.24%
- CC(C)NC(=O)C(=O)NCCCN1CCOCC1 — higher, 25.1%
- O=c1[nH]c2ccccc2c(O)c1-c1ccccc1[N+](=O)[O-] — higher, 20.6%
- CCn1c(C)nc2cc(C(=O)NNS(=O)(=O)c3ccc(C)c(C)c3)ccc21 — lower, -14.5%
- NC(=O)Cc1nc(-c2ccc([N+](=O)[O-])cc2)cs1 — lower, -4.22%
- CCOC(=O)c1cnn(CCOC(=O)c2cccc(F)c2)c1NC(=O)c1cccc(F)c1 — higher, 24%
- O=C(NCCc1ccccc1)c1ccco1 — lower, 0.15%
- CC(C)NC(=O)c1cccc2c1-c1ccccc1C2=O — higher, 15.6%
- CC1Cc2ccccc2N1CC(=O)Nc1cccc(S(N)(=O)=O)c1 (stereo not drawn) — higher, 13.3%
- O=C(CN1CCN(c2ccc(Cl)cc2)CC1)Nc1ccc(F)cc1 — lower, -60.9%
- COc1ccc(/C(C)=N/NC(=O)c2ccncc2)cc1[N+](=O)[O-] — lower, -10.9%
- COc1ccc(NC(=O)C(NC(=O)Cc2cccs2)c2ccccc2)cc1 (stereo not drawn) — higher, 14.8%
- Cc1cc(Cl)ccc1OC(C)C(=O)NCCCCc1ccccc1 (stereo not drawn) — lower, 1.86%
- COc1cc(OC)c(NC(C)C(=O)N2CCCC2)cc1Cl (stereo not drawn) — higher, 26.9%
- Fc1ccc(-c2nc3c(-c4ccc(Cl)cc4)cnn3cc2CCN2CCOCC2)cc1 — higher, 20.2%
- CCN(CC(=O)Nc1ccc(NC(C)=O)cc1)C(=O)c1ccc2c(c1)OCCO2 — lower, 0.98%
- CCN(CC)C(=O)CCn1nc(-c2ccc(C)cc2)c2ccccc2c1=O — lower, -28.4%
- COC(=O)C1=C(C)NC(C)=C(C(=O)OC)C1C(=O)OC(C)C(=O)c1ccccc1 (stereo not drawn) — lower, -16.6%
- Cc1cc(S(=O)(=O)NCc2ccccn2)c(Cl)cc1Cl — lower, 7.26%
- NC(=O)C1CC(=O)N(c2ccc(OCc3ccc(Cl)cc3)cc2)C1 (stereo not drawn) — lower, -0.277%
- N/C(=N\OC(=O)c1cccs1)c1cccc([N+](=O)[O-])c1 — higher, 17.2%
- CCOc1ccc(OCC(=O)OC(C)C(=O)Nc2ccc(Cl)cn2)cc1 (stereo not drawn) — lower, -42%
- Cc1cc(-n2c(C)cc(C(=O)CSc3nnc4sc5ccccc5n34)c2C)no1 — lower, -7.19%
- CCSc1nnc(NC(=O)Cc2ccccc2OC)s1 — higher, 13%
- CC(=O)Nc1ccc(S(=O)(=O)NCc2ccc(C(=O)NCCCN3CCC(C)CC3)cc2)cc1 — higher, 19.7%
- CC(NCc1ccc(F)cc1)C(=O)NC1CCCCC1.O=C(O)C(=O)O (stereo not drawn) — higher, 9.88%
- Cc1ccc(NS(=O)(=O)c2ccc(C(=O)NCC(c3ccco3)N3CCCCC3)cc2)cc1 (stereo not drawn) — lower, -7.6%
- O=C(CCc1ccccc1)Nc1cc(NC(=O)CCc2ccccc2)cc(C(=O)O)c1 — lower, -22%
- O=C(Cc1cccs1)Nc1cccc(C(=O)Nc2ccc(C(=O)O)cc2)c1 — lower, 6.12%
- CC(C)OC(=O)c1cccnc1N1CCN(c2ccc(F)cc2)CC1 — higher, 8.68%
- Cc1cc(NC(=S)N(Cc2ccc(Br)cc2)Cc2ccc(C(=O)O)cc2)ccc1Cl — higher, 34.6%
- CN1CCN(NC(=O)Nc2cccc(Cl)c2Cl)CC1 — higher, 14.1%
- O=C(Nc1ccc(O)c2c(=O)cc(-c3cccc(Cl)c3)oc12)c1ccccc1Cl — lower, -15.6%
- CC(Cc1cccs1)NC(=O)c1cccc(Cl)c1 (stereo not drawn) — lower, -20.9%
- COc1ccccc1CNC(=O)c1ccc2c(=O)n(CCCN3CCCC3=O)c(=S)[nH]c2c1 — lower, 0.0134%
- O=C(Nc1ccccc1N1CCOCC1)c1ccc(S(=O)(=O)NCc2ccco2)cc1 — lower, -15.7%
- CC(C)n1nc(C(=O)NNC(=O)c2ccc(OC(F)F)cc2)c2ccccc2c1=O — lower, -76.3%
- CCCN(CC1CC1)C(=O)COc1ccccc1C(=O)NCc1ccccc1 — lower, -56%
- COc1cccc2c(=O)n(CC(=O)Nc3ccccc3F)ccc12 — lower, 3.76%
- CCN(CC)CCCN=C(N)N.O=S(=O)(O)O — higher, 9.04%
- N#Cc1nc(-c2cccs2)oc1NCc1ccc2c(c1)OCO2 — lower, -10%
- CC1CN(C(=S)Nc2cccc(Cl)c2Cl)CC(C)O1 (stereo not drawn) — lower, -0.96%
- CCCNC(=O)c1ccc2snnc2c1 — lower, -3.1%
- CCOC(=O)/C(C(=O)Nc1ccccc1Br)=C1/NC(C)(C)Cc2ccccc21 — lower, -3.65%
- O=C(NCCCn1ccnc1)C(=O)NCC1OCCCN1S(=O)(=O)c1ccccc1 (stereo not drawn) — higher, 19.9%
- O=c1c2cnn(-c3ccccc3)c2ncn1CCc1ccccc1 — higher, 11.8%
- Cl.Fc1ccc(-c2ccc(CNCc3ccccn3)o2)cc1Cl — lower, -34.9%
- CC(C)(C)n1ncc(Oc2ccccc2[N+](=O)[O-])c(Cl)c1=O — lower, -9.62%
- COCCNC(=O)C(c1c[nH]c2ccccc12)N(C(=O)c1snc(C(N)=O)c1N)c1cccc(OC)c1 (stereo not drawn) — higher, 13.9%
- Cc1cc(C)n2c(SCC(C)C)nnc2n1 — higher, 13.3%
- CC(=O)N1CCN=C1SCc1cccc(C(F)(F)F)c1 — lower, -22.9%
- COc1ccc(-c2nc(C#N)c(NCc3ccccc3Cl)o2)cc1 — lower, 3.52%
- CCN(CC(=O)Nc1c(F)cccc1F)C(=O)CNC(=O)C1CCCCC1 — lower, -0.699%
- CSc1ccc(CCNC(=O)CCc2nnc3ccc(N4CCCC4)nn23)cc1 — lower, -3.45%
- Cc1csc2ncc(C(=O)NCCC(c3ccccc3)c3ccccc3)c(=O)n12 — lower, -0.968%
- CCN(CCn1cccn1)C(=O)CCc1nnc(-c2ccccc2)o1 — higher, 12%
